Laboratory results published in the supplement of paper PMC10498489.
Out of some 2,300 compounds screened, about 330 (14%) showed activity.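 The calls were made as follows: active = median modified Z-score above 1.96; inactive = 1.96 or below.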 The entries are a selection whose mix differs from that of the whole data set.

These molecules were tested on HepG2 Srxn1-GFP reporter cells (+30 nM CDDO-Me) (assay: Srxn1-GFP intensity median modified Z-score relative to plate median; higher = stronger NRF2 / oxidative stress reporter activation, active = hit call of the paper). Conditions: 10 µM; exposure time: 24h.
Outline: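 In 96-well plates holding 20,000 HepG2 Srxn1-GFP BAC reporter cells per well, compound at 10 μM and an NRF2 activator at 30 nM were added together for 24 h, with DMSO at ≤0.1%, across three replicate plates. After fixation in formaldehyde and Hoechst staining, confocal images were analysed cell by cell for cytoplasmic GFP, and images containing under 100 cells were excluded. Values are replicate medians of the per-plate modified Z-score of GFP intensity, scaled by 1.4826 × median absolute deviation.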
For `COc1ccc(-c2cc(=O)c3ccccc3o2)cc1` [euspeclibcmpd2301], the “Srxn1-GFP intensity median modified Z-score” value was inactive: -0.395. With `N=c1[nH]c(=S)c2ncn(C3O[C@H](CO)[C@@H](O)[C@H]3O)c2[nH]1` (stereo partly specified) [euspeclibcmpd1778] the “Srxn1-GFP intensity median modified Z-score” value was active: 41.1. With `C[C@@H]1CC2C3CC(F)=C4CC(=O)C=C[C@]4(C)[C@@]3(F)[C@@H](O)C[C@]2(C)[C@@]1(O)C(=O)CO` (stereo partly specified) [euspeclibcmpd415] the “Srxn1-GFP intensity median modified Z-score” value was inactive: -0.177. `CN1CCC(=C2c3ccccc3C=Cc3ccccc32)CC1` [euspeclibcmpd890] was tested, and the “Srxn1-GFP intensity median modified Z-score” value was active: 7.54. With `CC(Cc1cccc(C(F)(F)F)c1)NCCOC(=O)c1ccccc1` (stereo unspecified) [euspeclibcmpd1047] the “Srxn1-GFP intensity median modified Z-score” value was inactive: -0.246. In the case of `CC1(C)[C@@H]2CC[C@]1(C)C(=O)C2` [euspeclibcmpd42], the “Srxn1-GFP intensity median modified Z-score” value is reported as inactive: -0.12. `O=C(Oc1cc(O)cc2c1CC(OC(=O)c1cc(O)c(O)c(O)c1)C(c1cc(O)c(O)c(O)c1)O2)c1cc(O)c(O)c(O)c1` (stereo unspecified) [euspeclibcmpd1839] was tested, and the “Srxn1-GFP intensity median modified Z-score” value was inactive: -0.336. In the case of `Cc1nccnc1N1CCCCC1` [euspeclibcmpd921], the “Srxn1-GFP intensity median modified Z-score” value is reported as inactive: -0.584. `C=C(C)c1cc(O)c(C)cc1O` [euspeclibcmpd1354] was tested, and the “Srxn1-GFP intensity median modified Z-score” value was active: 6.7. In the case of `CC12CCC3C(CC3(C)C)C(C)(CCC1=O)O2` (stereo unspecified) [euspeclibcmpd2010], the “Srxn1-GFP intensity median modified Z-score” value is reported as inactive: -0.5. In the case of `O=C(O)CCCCCCCC(=O)O` [euspeclibcmpd326], the “Srxn1-GFP intensity median modified Z-score” value is reported as inactive: 0.617. With `CC1=C2CC(=O)C=C[C@]2(C)C2C(C1)C1CC[C@](O)(C(=O)COC(=O)CCC(=O)O)[C@@]1(C)C[C@@H]2O` (stereo partly specified) [euspeclibcmpd2224] the “Srxn1-GFP intensity median modified Z-score” value was inactive: -0.845. `CCCCN(CCCC)CCCOC(=O)c1ccc(N)cc1` [euspeclibcmpd632] was tested, and the “Srxn1-GFP intensity median modified Z-score” value was inactive: -0.742. In the case of `FC(F)(F)C(Cl)Br` (stereo unspecified) [euspeclibcmpd783], the “Srxn1-GFP intensity median modified Z-score” value is reported as inactive: -0.331. With `O=C(O)CN1C(=O)c2cccc3cccc(c23)C1=O` [euspeclibcmpd433] the “Srxn1-GFP intensity median modified Z-score” value was active: 2.2. In the case of `CC(=O)OCC(=O)[C@@]1(O)CC[C@H]2[C@@H]3CCC4=CC(=O)CC[C@]4(C)[C@H]3[C@@H](O)C[C@@]21C`, the “Srxn1-GFP intensity median modified Z-score” value is reported as inactive: 0.378. For `CCCCCCCCCCCCCCCC(=O)OC/C=C(C)/C=C/C=C(C)/C=C/C1=C(C)CCCC1(C)C` [euspeclibcmpd856], the “Srxn1-GFP intensity median modified Z-score” value was inactive: 0.0199. For `C=CC(N)CCC(=O)O` (stereo unspecified) [euspeclibcmpd2202], the “Srxn1-GFP intensity median modified Z-score” value was inactive: 1.14. With `NS(=O)(=O)c1cc(C2(O)NC(=O)c3ccccc32)ccc1Cl` (stereo unspecified) [euspeclibcmpd62] the “Srxn1-GFP intensity median modified Z-score” value was inactive: -0.0714. In the case of `CC[N+](C)(C)c1cccc(O)c1` [euspeclibcmpd953], the “Srxn1-GFP intensity median modified Z-score” value is reported as inactive: 0.119. With `NCc1ccccc1CC(=O)NC1C(=O)N2C(C(=O)O)=C(CSc3nnnn3CC(=O)O)CSC12` (stereo unspecified) [euspeclibcmpd506] the “Srxn1-GFP intensity median modified Z-score” value was inactive: -0.382. In the case of `OC(Cn1cncn1)(Cn1cncn1)c1ccc(F)cc1F` [euspeclibcmpd643], the “Srxn1-GFP intensity median modified Z-score” value is reported as inactive: -0.214. For `Cc1cn[nH]c1` [euspeclibcmpd2215], the “Srxn1-GFP intensity median modified Z-score” value was inactive: -0.461. In the case of `Cc1cn[nH]c1` [euspeclibcmpd2196], the “Srxn1-GFP intensity median modified Z-score” value is reported as inactive: 1.06. For `CC[N+](C)(CC)CCOC(=O)C(O)(c1ccccc1)C1CCCCC1` (stereo unspecified) [euspeclibcmpd1223], the “Srxn1-GFP intensity median modified Z-score” value was inactive: -0.312. In the case of `CC1(C)OC(=O)C(OCC2CC2)=C1c1ccc(S(C)(=O)=O)cc1` [euspeclibcmpd752], the “Srxn1-GFP intensity median modified Z-score” value is reported as inactive: -0.638. In the case of `CCN(CC)CCOC(=O)C1(C2CCCCC2)CCCCC1` [euspeclibcmpd90], the “Srxn1-GFP intensity median modified Z-score” value is reported as active: 2.86. `O=c1cc(-c2ccccc2)oc2c(O)c(O)ccc12` [euspeclibcmpd2237] was tested, and the “Srxn1-GFP intensity median modified Z-score” value was active: 4.14. For `CCCCOCCOCCOCc1cc2c(cc1CCC)OCO2` [euspeclibcmpd1169], the “Srxn1-GFP intensity median modified Z-score” value was inactive: 0.075. In the case of `CC(O)CN1CCN(CC(=O)O)CCN(CC(=O)O)CCN(CC(=O)O)CC1` (stereo unspecified) [euspeclibcmpd2179], the “Srxn1-GFP intensity median modified Z-score” value is reported as inactive: -0.14. For `Cc1[nH]ccc2c1[nH]c1cc(=O)ccc12` [euspeclibcmpd2030], the “Srxn1-GFP intensity median modified Z-score” value was inactive: -0.813. With `CN(C)CCCN1c2ccccc2Sc2ccc(C(F)(F)F)cc21` [euspeclibcmpd612] the “Srxn1-GFP intensity median modified Z-score” value was inactive: -1.21. In the case of `CC(=O)OC1=C2C(C)C(O)CC(O)(C(OC(=O)c3ccccc3)C3C4(OC(C)=O)COC4CC(O)C3(C)C1=O)C2(C)C` (stereo unspecified) [euspeclibcmpd1937], the “Srxn1-GFP intensity median modified Z-score” value is reported as inactive: 0.285. For `CC1=C(CCC(=O)O)c2cc3nc(cc4[nH]c(cc5[nH]c(cc1n2)c(C)c5C(C)O)c(C)c4C(C)O)C(C)=C3CCC(=O)O` (stereo unspecified) [euspeclibcmpd1687], the “Srxn1-GFP intensity median modified Z-score” value was active: 8.82. With `CCCCCc1c2c(cc(O)c1C(=O)O)OC(=O)c1c(cc(OC)cc1C(=O)CCCC)O2` [euspeclibcmpd1731] the “Srxn1-GFP intensity median modified Z-score” value was active: 4.46. `Clc1ccc(CCC(Cn2ccnc2)Sc2c(Cl)cccc2Cl)cc1` (stereo unspecified) [euspeclibcmpd650] was tested, and the “Srxn1-GFP intensity median modified Z-score” value was active: 26.7. In the case of `NC(=O)CCC(N)C(=O)O` (stereo unspecified) [euspeclibcmpd1404], the “Srxn1-GFP intensity median modified Z-score” value is reported as inactive: -0.533. `CCCCCCCCCCCCCCCCCCOCC(O)CO` (stereo unspecified) [euspeclibcmpd1378] was tested, and the “Srxn1-GFP intensity median modified Z-score” value was inactive: -0.274. In the case of `C[N+]1(C)CCC(OC(=O)C(O)(c2ccccc2)C2CCCC2)C1` (stereo unspecified) [euspeclibcmpd863], the “Srxn1-GFP intensity median modified Z-score” value is reported as inactive: -0.394. In the case of `Oc1ccc2ccccc2c1` [euspeclibcmpd1176], the “Srxn1-GFP intensity median modified Z-score” value is reported as inactive: 1.48. In the case of `COC(=O)c1cc(O)c(=O)c2c(O)c(O)ccc2c1` [euspeclibcmpd2277], the “Srxn1-GFP intensity median modified Z-score” value is reported as inactive: -0.815. `CC(C)CC(N)=O` [euspeclibcmpd931] was tested, and the “Srxn1-GFP intensity median modified Z-score” value was inactive: -0.219. In the case of `CN1CCN(C2=Nc3ccccc3Oc3ccc(Cl)cc32)CC1` [euspeclibcmpd702], the “Srxn1-GFP intensity median modified Z-score” value is reported as inactive: 0.0816. In the case of `COc1c2occc2cc2ccc(=O)oc12` [euspeclibcmpd192], the “Srxn1-GFP intensity median modified Z-score” value is reported as inactive: -0.198. For `CC(=O)Oc1ccc2c(c1OC(C)=O)OCC1(O)Cc3c(cc(OC(C)=O)c(OC(C)=O)c3OC(C)=O)C21` (stereo unspecified) [euspeclibcmpd1391], the “Srxn1-GFP intensity median modified Z-score” value was inactive: -0.46. `C[C@H](CCC(=O)O)[C@H]1CCC2C3C(=O)CC4CC(=O)CC[C@]4(C)C3CC(=O)[C@@]21C` (stereo partly specified) [euspeclibcmpd2057] was tested, and the “Srxn1-GFP intensity median modified Z-score” value was inactive: -0.197. In the case of `CN1C2CCC1CC(OC(=O)c1c[nH]c3ccccc13)C2` (stereo unspecified) [euspeclibcmpd1092], the “Srxn1-GFP intensity median modified Z-score” value is reported as inactive: -0.176. In the case of `O=C(O)c1cn(-c2ccc(F)cc2)c2cc(N3CCNCC3)c(F)cc2c1=O` [euspeclibcmpd743], the “Srxn1-GFP intensity median modified Z-score” value is reported as inactive: -0.431. For `O=C(O)Cc1ccc(-c2ccccc2)cc1` [euspeclibcmpd926], the “Srxn1-GFP intensity median modified Z-score” value was inactive: -0.403. For `C=CC[S+]([O-])CC(N)C(=O)O` (stereo unspecified) [euspeclibcmpd2346], the “Srxn1-GFP intensity median modified Z-score” value was inactive: -0.228. In the case of `CCOC(=O)OC(C)OC(=O)C1N2C(=O)C(NC(=O)C(N)c3ccccc3)C2SC1(C)C` (stereo unspecified) [euspeclibcmpd983], the “Srxn1-GFP intensity median modified Z-score” value is reported as inactive: 0.627. For `Cc1ccc(N2CC(C(=O)NCCCn3ccnc3)CC2=O)c(F)c1` (stereo unspecified), the “Srxn1-GFP intensity median modified Z-score” value was inactive: 1.07. In the case of `Oc1c(Br)cc(Br)c2cccnc12` [euspeclibcmpd1032], the “Srxn1-GFP intensity median modified Z-score” value is reported as active: 4.39. With `COc1ccc(-c2coc3cc(O)ccc3c2=O)cc1` [euspeclibcmpd1410] the “Srxn1-GFP intensity median modified Z-score” value was inactive: 0.0543. `CC(C)C(C)/C=C/C(C)C1CCC2C3=CC=C4CC(O)CCC4(C)C3CCC21C` (stereo unspecified) [euspeclibcmpd1597] was tested, and the “Srxn1-GFP intensity median modified Z-score” value was active: 5.02. `COc1cc2c(cc1OC)C1C(=O)c3c(O)cc4c(c3OC1CO2)C=CC(C)(C)O4` (stereo unspecified) [euspeclibcmpd1478] was tested, and the “Srxn1-GFP intensity median modified Z-score” value was inactive: 1.56. For `CCOC(=O)N1CCC(=C2c3ccc(Cl)cc3CCc3cccnc32)CC1` [euspeclibcmpd600], the “Srxn1-GFP intensity median modified Z-score” value was inactive: 0.62. In the case of `NC(=O)c1ccccc1O` [euspeclibcmpd265], the “Srxn1-GFP intensity median modified Z-score” value is reported as inactive: -0.32. For `NC[C@@H]1O[C@H](O[C@@H]2[C@@H](CO)OC(O[C@@H]3[C@@H](O)[C@H](N)C[C@H](N)[C@H]3O[C@H]3O[C@H](CO)[C@@H](O)[C@H](O)[C@H]3N)[C@@H]2O)[C@H](N)[C@@H](O)[C@@H]1O` (stereo partly specified) [euspeclibcmpd563], the “Srxn1-GFP intensity median modified Z-score” value was inactive: -0.129. For `COc1ccc(C(=O)CCC(=O)O)c2ccccc12` [euspeclibcmpd2372], the “Srxn1-GFP intensity median modified Z-score” value was inactive: -0.455. For `CC1=C(/C=C/C(C)=C/C=C/C(C)=C/C=C/C=C(C)/C=C/C=C(C)/C=C/C2=C(C)CCCC2(C)C)C(C)(C)CCC1` [euspeclibcmpd256], the “Srxn1-GFP intensity median modified Z-score” value was inactive: 1.65. `CC[C@]1(O)CC2CN(CCc3c([nH]c4ccccc34)[C@@](C(=O)OC)(c3cc4c(cc3OC)N(C)[C@H]3[C@@](O)(C(=O)OC)[C@H](OC(C)=O)[C@]5(CC)C=CCN6CC[C@]43[C@@H]65)C2)C1` (stereo partly specified) [euspeclibcmpd320] was tested, and the “Srxn1-GFP intensity median modified Z-score” value was active: 25.8. With `CC(C(=O)O)c1ccc(CC2CCCC2=O)cc1` (stereo unspecified) [euspeclibcmpd1100] the “Srxn1-GFP intensity median modified Z-score” value was inactive: 0.299. `O=C(O)CCc1nc(-c2ccccc2)c(-c2ccccc2)o1` [euspeclibcmpd734] was tested, and the “Srxn1-GFP intensity median modified Z-score” value was inactive: -0.241. In the case of `O=C1c2ccccc2C(=O)C1c1ccccc1` [euspeclibcmpd232], the “Srxn1-GFP intensity median modified Z-score” value is reported as inactive: -0.321. With `Clc1ccc2c(c1)C(N1CCNCC1)=Nc1ccccc1O2` [euspeclibcmpd943] the “Srxn1-GFP intensity median modified Z-score” value was inactive: 0.369. For `OCCN1CCN(CCCN2c3ccccc3Sc3ccc(C(F)(F)F)cc32)CC1` [euspeclibcmpd361], the “Srxn1-GFP intensity median modified Z-score” value was inactive: -0.0321. `CC(C)(Oc1ccc(CCNC(=O)c2ccc(Cl)cc2)cc1)C(=O)O` [euspeclibcmpd432] was tested, and the “Srxn1-GFP intensity median modified Z-score” value was inactive: 0.0401. `c1ccc(CC2=NCCN2)cc1` [euspeclibcmpd297] was tested, and the “Srxn1-GFP intensity median modified Z-score” value was inactive: 0.251. `O=C(O)c1ccccc1-c1c2cc(I)c(=O)c(I)c-2oc2c(I)c(O)c(I)cc12` [euspeclibcmpd2143] was tested, and the “Srxn1-GFP intensity median modified Z-score” value was inactive: 0.0355. In the case of `Cc1ccc(N(CC2=NCCN2)c2cccc(O)c2)cc1` [euspeclibcmpd340], the “Srxn1-GFP intensity median modified Z-score” value is reported as inactive: -0.737.
